Lines with a small IC50 respond at low doses; where the fit passes the top or lowest dose, that dose stands as a limit. AUC is the area under the same curve over the 256-fold range up to the top dose, as a fraction; the more sensitive the line, the further below 1. Any top dose called inferred was calculated from the reported fits. For part of these data: Where an entry number is given, a second screen of the drug exists; the two often differ.
Key:
Assay in all cases: Viability of human cancer cell lines after 72 h of drug (GDSC screen)
XMD8-85 = compound: COc1cc(N2CCN(C)CC2)ccc1Nc1ncc2c(n1)N(C)c1ccccc1C(=O)N2C [XMD8-85]; conditions: top dose 8 µM; top dose inferred
Method: (§1)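 Human cancer cell lines in 384-well plates, medium with 10% serum, drug for 72 h over a 256-fold dose range (nine 2-fold or five 4-fold steps up to the top dose). Adherent lines were fixed and stained with the nucleic acid dye Syto60, suspension lines read with resazurin; signal relative to control wells, capped at 0 and 100%. One two-parameter sigmoid per drug and line, fitted in a mixed model over all curves with the slope shared within a line.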

BMS-536924 = compound: Cc1cc(N2CCOCC2)cc2[nH]c(-c3c(NC[C@@H](O)c4cccc(Cl)c4)cc[nH]c3=O)nc12 [BMS-536924]
Method: as §1

CGP-082996 (CINK4) = compound: CCNc1cc(NC2CCC(O)CC2)nc(Nc2ccc3c(ccn3Cc3ccccc3)c2)n1 [CGP-082996 (CINK4)]; conditions: top dose 5.12 µM; top dose inferred
Method: as §1

A-770041 = compound: COc1cc(-c2nn([C@H]3CC[C@H](N4CCN(C(C)=O)CC4)CC3)c3ncnc(N)c23)ccc1NC(=O)c1cc2ccccc2n1C [A-770041]; conditions: top dose 5.12 µM; top dose inferred
Method: as §1

Shikonin = compound: CC(C)=CC[C@@H](O)C1=CC(=O)c2c(O)ccc(O)c2C1=O [Shikonin]; conditions: top dose 16 µM; top dose inferred
Method: as §1

BIRB 0796 = compound: Cc1ccc(-n2nc(C(C)(C)C)cc2NC(=O)Nc2ccc(OCCN3CCOCC3)c3ccccc23)cc1 [BIRB 0796]; conditions: top dose 10 µM; top dose inferred
Method: as §1

HG-5-113-01 = compound: CNC(=O)c1ccc(Nc2cc(Nc3ccccc3S(=O)(=O)C(C)C)c3cc[nH]c3n2)nc1 [HG-5-113-01]; conditions: top dose 10 µM; top dose inferred
Method: as §1

SB-525334 = compound: Cc1cccc(-c2[nH]c(C(C)(C)C)nc2-c2ccc3nccnc3c2)n1 [SB-525334]; conditions: top dose 20 µM; top dose inferred
Method: as §1

Wee1 inhibitor 681640 = compound: O=C1NC(=O)c2c1c(-c1ccccc1Cl)cc1[nH]c3ccc(O)cc3c21 [Wee1 inhibitor 681640]; conditions: top dose 2 µM; top dose inferred
Method: as §1

Olaparib = compound: O=C(c1cc(Cc2n[nH]c(=O)c3ccccc23)ccc1F)N1CCN(C(=O)C2CC2)CC1 [Olaparib]
Method: as §1

VX-702 = compound: NC(=O)c1ccc(N(C(N)=O)c2c(F)cccc2F)nc1-c1ccc(F)cc1F [VX-702]; conditions: top dose 2 µM; top dose inferred
Method: as §1

[1] = top dose 5.12 µM, screen: GDSC drug entry 62
[2] = top dose 4 µM, screen: GDSC drug entry 1091, top dose inferred
[3] = top dose 5 µM, screen: GDSC drug entry 1017, top dose inferred
[4] = top dose 10 µM, screen: GDSC drug entry 1495

Row | Cell Line | AUC (XMD8-85) | IC50 (XMD8-85) | AUC (BMS-536924; [1]) | IC50 (BMS-536924; [1]) | AUC (CGP-082996 (CINK4)) | IC50 (CGP-082996 (CINK4)) | AUC (A-770041) | IC50 (A-770041) | AUC (Shikonin) | IC50 (Shikonin) | AUC (BIRB 0796) | IC50 (BIRB 0796) | AUC (HG-5-113-01) | IC50 (HG-5-113-01) | AUC (BMS-536924; [2]) | IC50 (BMS-536924; [2]) | AUC (SB-525334) | IC50 (SB-525334) | AUC (Wee1 inhibitor 681640) | IC50 (Wee1 inhibitor 681640) | AUC (Olaparib; [3]) | IC50 (Olaparib; [3]) | AUC (Olaparib; [4]) | IC50 (Olaparib; [4]) | AUC (VX-702) | IC50 (VX-702)
1 | NCI-H128 (small cell lung carcinoma, suspension) | 0.967 | > 8 µM | 0.971 | > 5.12 µM | 0.912 | > 5.12 µM | 0.94 | > 5.12 µM | – | – | – | – | – | – | – | – | – | – | – | – | – | – | – | – | – | –
2 | NCI-H1355 (lung adenocarcinoma, adherent) | – | – | 0.519 | 0.369 µM | 0.839 | > 5.12 µM | 0.858 | > 5.12 µM | 0.545 | 1.4 µM | 0.897 | > 10 µM | 0.705 | 3.09 µM | 0.757 | 1.98 µM | 0.959 | > 20 µM | 0.929 | > 2 µM | – | – | – | – | – | –
3 | NCI-H1648 (lung adenocarcinoma, adherent) | – | – | 0.427 | 0.199 µM | 0.889 | > 5.12 µM | 0.541 | 0.417 µM | 0.787 | 7.46 µM | 0.951 | > 10 µM | 0.654 | 1.72 µM | 0.908 | > 4 µM | 0.968 | > 20 µM | 0.97 | > 2 µM | 0.985 | > 5 µM | 0.966 | > 10 µM | 0.952 | > 2 µM
4 | NCI-H1975 (lung adenocarcinoma, adherent) | – | – | 0.509 | 0.341 µM | 0.924 | > 5.12 µM | 0.51 | 0.343 µM | 0.308 | 0.264 µM | 0.915 | > 10 µM | 0.786 | 4.99 µM | 0.853 | 3.86 µM | 0.95 | > 20 µM | 0.971 | > 2 µM | 0.983 | > 5 µM | 0.968 | > 10 µM | 0.983 | > 2 µM
5 | NCI-H2227 (small cell lung carcinoma, semi-adherent) | 0.981 | > 8 µM | – | – | – | – | – | – | 0.708 | 4.22 µM | 0.982 | > 10 µM | – | – | 0.942 | > 4 µM | 0.904 | > 20 µM | 0.985 | > 2 µM | 0.968 | > 5 µM | 0.95 | > 10 µM | 0.96 | > 2 µM
6 | NK-92MI (lymphoid neoplasm, suspension) | 0.923 | > 8 µM | 0.55 | 0.434 µM | 0.904 | > 5.12 µM | 0.783 | 1.99 µM | 0.257 | 0.213 µM | – | – | – | – | – | – | – | – | – | – | – | – | – | – | – | –
7 | RC-K8 (B-cell lymphoma, suspension) | 0.977 | > 8 µM | – | – | – | – | – | – | 0.557 | 1.4 µM | 0.911 | > 10 µM | 0.97 | > 10 µM | 0.992 | > 4 µM | 0.972 | > 20 µM | 0.989 | > 2 µM | 0.99 | > 5 µM | 0.981 | > 10 µM | 0.985 | > 2 µM
8 | SHP-77 (small cell lung carcinoma, semi-adherent) | – | – | 0.979 | > 5.12 µM | 0.973 | > 5.12 µM | 0.862 | 3.65 µM | 0.446 | 0.724 µM | 0.983 | > 10 µM | 0.831 | 5.43 µM | 0.956 | > 4 µM | 0.933 | > 20 µM | 0.987 | > 2 µM | 0.991 | > 5 µM | 0.985 | > 10 µM | 0.991 | > 2 µM
9 | SNU-C2B (large intestine, adherent) | – | – | 0.733 | 1.86 µM | 0.952 | > 5.12 µM | 0.821 | 4.29 µM | 0.777 | 8.63 µM | 0.976 | > 10 µM | 0.837 | > 10 µM | 0.906 | > 4 µM | 0.937 | > 20 µM | 0.926 | > 2 µM | 0.964 | > 5 µM | 0.839 | > 10 µM | 0.968 | > 2 µM
10 | SW982 (soft tissue, adherent) | – | – | 0.634 | 0.758 µM | 0.923 | > 5.12 µM | 0.502 | 0.324 µM | 0.143 | 0.0731 µM | 0.977 | > 10 µM | 0.658 | 1.74 µM | 0.897 | > 4 µM | 0.892 | > 20 µM | 0.96 | > 2 µM | 0.883 | > 5 µM | 0.858 | 8.58 µM | 0.974 | > 2 µM
11 | TK (B-cell lymphoma, suspension) | 0.943 | > 8 µM | – | – | – | – | – | – | 0.415 | 0.598 µM | 0.842 | 6.11 µM | 0.77 | 3.48 µM | 0.954 | > 4 µM | 0.97 | > 20 µM | 0.965 | > 2 µM | 0.99 | > 5 µM | 0.983 | > 10 µM | 0.985 | > 2 µM
12 | UACC-812 (breast, adherent) | 0.991 | > 8 µM | – | – | – | – | – | – | 0.726 | 4.28 µM | – | – | – | – | – | – | 0.985 | > 20 µM | – | – | – | – | – | – | – | –
13 | VAL (B-cell lymphoma, suspension) | 0.804 | 4 µM | – | – | – | – | – | – | 0.404 | 0.546 µM | 0.952 | > 10 µM | 0.789 | 4.44 µM | 0.95 | > 4 µM | 0.893 | > 20 µM | 0.938 | > 2 µM | 0.985 | > 5 µM | 0.977 | > 10 µM | 0.946 | > 2 µM

Source: the supplement of paper PMC4967469
